In all, about 310,000 compounds went through this assay and about 2,200 (0.71%) showed an effect of 50% or more. Effects have a minus sign here. The list shows a part of the results.
Each compound was assayed against human ether-à-go-go-related gene (hERG) potassium channel (human, UniProt Q12809) (assay: primary screen, population patch clamp on CHO cells stably expressing hERG).
Sequence of human ether-à-go-go-related gene (hERG) potassium channel (Q12809 whole entry, looked up): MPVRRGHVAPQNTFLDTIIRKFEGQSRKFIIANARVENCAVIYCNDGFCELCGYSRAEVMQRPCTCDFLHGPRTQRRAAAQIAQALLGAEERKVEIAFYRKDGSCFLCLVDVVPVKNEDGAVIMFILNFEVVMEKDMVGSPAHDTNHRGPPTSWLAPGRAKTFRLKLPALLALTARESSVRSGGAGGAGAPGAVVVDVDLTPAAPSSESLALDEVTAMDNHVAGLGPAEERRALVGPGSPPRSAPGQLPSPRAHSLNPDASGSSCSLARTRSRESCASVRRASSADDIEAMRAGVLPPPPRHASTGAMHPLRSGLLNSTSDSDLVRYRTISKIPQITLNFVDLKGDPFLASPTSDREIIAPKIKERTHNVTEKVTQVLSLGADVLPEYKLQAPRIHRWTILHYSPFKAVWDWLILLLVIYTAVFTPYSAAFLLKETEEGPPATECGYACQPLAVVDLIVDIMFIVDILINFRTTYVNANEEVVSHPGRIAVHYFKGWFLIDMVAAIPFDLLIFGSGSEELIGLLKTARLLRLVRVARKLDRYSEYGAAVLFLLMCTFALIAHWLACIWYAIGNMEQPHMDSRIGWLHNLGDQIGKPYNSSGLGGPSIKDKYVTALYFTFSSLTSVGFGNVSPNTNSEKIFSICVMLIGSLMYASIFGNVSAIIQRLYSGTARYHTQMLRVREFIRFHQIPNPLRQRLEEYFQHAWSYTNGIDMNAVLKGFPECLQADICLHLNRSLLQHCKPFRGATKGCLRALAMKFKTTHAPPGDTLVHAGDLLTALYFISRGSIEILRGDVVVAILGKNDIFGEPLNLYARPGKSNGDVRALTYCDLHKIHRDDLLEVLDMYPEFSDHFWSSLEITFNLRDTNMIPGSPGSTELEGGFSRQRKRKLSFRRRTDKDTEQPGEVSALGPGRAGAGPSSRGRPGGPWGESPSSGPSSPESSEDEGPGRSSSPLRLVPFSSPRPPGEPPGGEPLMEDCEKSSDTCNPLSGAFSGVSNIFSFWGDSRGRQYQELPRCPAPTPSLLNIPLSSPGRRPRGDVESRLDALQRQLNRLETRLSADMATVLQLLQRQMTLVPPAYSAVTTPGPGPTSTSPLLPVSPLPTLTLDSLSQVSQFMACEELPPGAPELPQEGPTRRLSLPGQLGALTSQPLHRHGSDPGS

Compared with `COc1ccc(C2CCCN2C(=S)Nc2cccc(Cl)c2)cc1OC` (stereo not shown), `COc1ccc(NC(=O)c2cc(S(=O)(=O)N3CCc4ccccc43)cn2C)cc1OC` is higher in “hERG current change (%, negative = inhibition) at 1uM” value: 3.97% for the first, 10.6% for the second.

First: O=C(CN1CCN(Cc2ccccc2)CC1)NCc1ccc(Cl)cc1
Second: O=C(CCC(=O)N1CCSc2ccccc21)NCc1ccc(Cl)cc1
The “hERG current change (%, negative = inhibition) at 1uM” value of the first is lower: -13.4% for the first, 5.74% for the second.

First: Cc1cccc(OCCCC(=O)NCc2ccco2)c1
Second: CC(C)CC(OC(=O)c1cccs1)C(=O)NCc1ccco1 (stereo not shown)
The “hERG current change (%, negative = inhibition) at 1uM” value of the first is lower: 8.14% for the first, 21.8% for the second.

Going from `COc1ccc(C2C(=O)N(C3CCCCCC3)CC(=O)N2Cc2ccccc2)cc1OC` (stereo not shown) to `COc1cc(S(=O)(=O)N(Cc2ccccc2)CC2CCCO2)ccc1-n1cnnn1` (stereo not shown), the “hERG current change (%, negative = inhibition) at 1uM” value falls from 10.6% to 8.58%.

Going from `COc1ccc2nc(NC(=O)c3cccc(N4C(=O)CCC4=O)c3)sc2c1` to `COc1ccc(S(=O)(=O)NCc2ccccn2)cc1NC(=O)c1ccc(C)cc1`, the “hERG current change (%, negative = inhibition) at 1uM” value rises from 2.6% to 6.98%.

First: Cc1nc2nc(C)c(CCC(=O)NC3CCCCC3)c(C)n2n1
Second: Nc1nnc(CCC2CCCCC2)s1
The “hERG current change (%, negative = inhibition) at 1uM” value of the first is lower: 9.07% for the first, 14.9% for the second.

Compared with `CC(C)CN1C(Nc2ccccc2)=NC[C@@H]1C`, `CN1COc2ccc3ccccc3c2C1` is lower in “hERG current change (%, negative = inhibition) at 1uM” value: 14% for the first, 12.4% for the second.

First: O=C(NCc1ccccc1)C1Nc2ccc(OC(F)(F)F)cc2C2C=CCC12 (stereo not shown)
Second: CCOC(=O)Cn1c(S(=O)(=O)Cc2cccc(F)c2)nc(-c2ccccc2)c1-c1ccccc1
The “hERG current change (%, negative = inhibition) at 1uM” value of the first is higher: 6.53% for the first, 1.88% for the second.

Going from `COC(=O)N1CCCc2cc(C)ccc21` to `COc1ccc2c(c1OC)CN1CCc3cc4c(cc3[C@@H]1[C@@H]2O)OCO4`, the “hERG current change (%, negative = inhibition) at 1uM” value rises from 9.69% to 11.2%.

Going from `Cc1cc(C)nc(SCc2nnc(SCC(=O)Nc3nccs3)n2Cc2ccco2)n1` to `COc1ccc(NC(=O)CCC(=O)c2ccc(Cl)cc2)cn1`, the “hERG current change (%, negative = inhibition) at 1uM” value rises from -4.17% to 0.313%.

First: Oc1ccc(Br)cc1C=Nc1ccc2c3c(cccc13)CC2
Second: NS(=O)(=O)c1ccc(NC(=O)c2c(Cl)cccc2Cl)cc1
The “hERG current change (%, negative = inhibition) at 1uM” value of the first is higher: 14.1% for the first, 3.56% for the second.

Compared with `COCc1ccc(CN2CCC(N3CCC(C(=O)N4CCCC4)CC3)CC2)o1`, `COc1ccc(Cl)cc1NC(=S)N(Cc1ccccc1C)CC1CCC(C(=O)O)CC1` (stereo not shown) is higher in “hERG current change (%, negative = inhibition) at 1uM” value: 10.6% for the first, 22% for the second.

`O=C(NCCSc1ccc(Cl)cc1)c1ccc(CN2CCOCC2)cc1` was tested, and the “hERG current change (%, negative = inhibition) at 1uM” value was -12.2%.
